Source: the supplement of paper PMC3334620
In all, about 33,000 sequences were measured (“E-score (-0.5 to 0.5)”: median about -0.012, highest 2% from about 0.29 on). The list shows a part of the results.

What follows are sequences tested against T1, Ybr033w (UniProt P38073) (assay: PBM E-score (8-mer binding enrichment) (E-score (-0.5 to 0.5)); higher = stronger / more preferred TF binding; most listed sequences are background and not binding sites). Conditions: protein concentration: 200 nM; construct: GST-full length.
T1 sequence: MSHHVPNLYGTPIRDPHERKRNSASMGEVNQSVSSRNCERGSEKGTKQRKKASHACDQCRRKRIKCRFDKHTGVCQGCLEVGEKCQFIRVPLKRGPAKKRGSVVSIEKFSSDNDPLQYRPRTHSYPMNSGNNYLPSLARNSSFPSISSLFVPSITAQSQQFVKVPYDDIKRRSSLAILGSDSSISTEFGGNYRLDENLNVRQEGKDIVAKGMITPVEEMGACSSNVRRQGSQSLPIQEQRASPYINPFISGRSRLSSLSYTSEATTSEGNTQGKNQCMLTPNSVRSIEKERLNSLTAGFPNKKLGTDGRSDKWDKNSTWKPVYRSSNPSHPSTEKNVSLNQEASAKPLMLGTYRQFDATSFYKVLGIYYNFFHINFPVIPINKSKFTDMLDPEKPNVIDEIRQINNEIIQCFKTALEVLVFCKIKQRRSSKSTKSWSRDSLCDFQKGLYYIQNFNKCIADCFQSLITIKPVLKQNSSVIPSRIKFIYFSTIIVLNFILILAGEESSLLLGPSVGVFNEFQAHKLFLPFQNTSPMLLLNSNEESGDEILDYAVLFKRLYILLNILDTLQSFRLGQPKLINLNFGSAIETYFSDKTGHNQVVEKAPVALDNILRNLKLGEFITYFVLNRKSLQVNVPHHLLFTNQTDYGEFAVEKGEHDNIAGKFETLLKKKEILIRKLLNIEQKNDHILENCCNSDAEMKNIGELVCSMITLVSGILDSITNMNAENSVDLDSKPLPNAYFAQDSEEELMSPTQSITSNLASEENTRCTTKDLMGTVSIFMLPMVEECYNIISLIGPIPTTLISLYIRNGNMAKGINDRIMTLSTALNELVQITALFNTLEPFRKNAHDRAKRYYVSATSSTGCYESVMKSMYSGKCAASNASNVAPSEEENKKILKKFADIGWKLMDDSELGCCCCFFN
In short: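 Using PURExpress in vitro transcription/translation, GST-tagged yeast transcription factors were made in full-length or DNA-binding-domain form. These were applied at about 100-200 nM to double-stranded universal all-10-mer Agilent arrays, and bound protein was detected with fluorescent anti-GST. Scans were normalised with masliner before the Universal PBM Analysis Suite assigned E-scores to ungapped eight-base words pooled with their reverse complements.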

Going from AGCAGCCG to AGAATGCG, the “PBM E-score” value rises from -0.0763 to -0.0351.

Compared with ATCTCGCA, TCAGCCAA is lower in “PBM E-score” value: 0.0867 for the first, 0.07 for the second.

Compared with AAGTGACC, ATGTTGGC is higher in “PBM E-score” value: -0.114 for the first, -0.0279 for the second.

Compared with CGAAGGCA, CGCGTCAC is lower in “PBM E-score” value: 0.0306 for the first, -0.0843 for the second.

Compared with CTCTTGGC, CCTTTGAC is higher in “PBM E-score” value: -0.203 for the first, -0.147 for the second.

First: GAAGCTGC
Second: CCAACTTA
The “PBM E-score” value of the first is lower: 0.0103 for the first, 0.0701 for the second.

Compared with GCCATTGA, ATTTCAGG is lower in “PBM E-score” value: 0.152 for the first, 0.0825 for the second.

First: CGCACTGA
Second: ACAGGACA
The “PBM E-score” value of the first is lower: -0.137 for the first, 0.139 for the second.

First: GCTAAGGA
Second: ACCCGCCG
The “PBM E-score” value of the first is lower: -0.106 for the first, 0.0442 for the second.

Compared with CGACAGCG, TACGAATA is higher in “PBM E-score” value: -0.0586 for the first, 0.238 for the second.

Going from AGGCATTG to ACACCCAA, the “PBM E-score” value rises from -0.118 to 0.0863.

Going from AGTATCGA to GGACACTA, the “PBM E-score” value falls from 0.176 to -0.179.

First: ACTTTTGC
Second: ACCTGTTA
The “PBM E-score” value of the first is higher: 0.172 for the first, -0.0213 for the second.

First: CTCACCGA
Second: GTACCTAC
The “PBM E-score” value of the first is higher: 0.00035 for the first, -0.178 for the second.

Compared with AGACTAGC, CTAGCGTA is lower in “PBM E-score” value: -0.208 for the first, -0.25 for the second.

Going from AAGTTGCT to TCCTGGAA, the “PBM E-score” value falls from 0.0671 to 0.0317.

Compared with GATGTATA, ACTACTCC is lower in “PBM E-score” value: 0.227 for the first, 0.0891 for the second.

Compared with CCCACACC, GGTGTTCA is higher in “PBM E-score” value: -0.131 for the first, -0.0763 for the second.

First: AGGTGACC
Second: CGAGCTGA
The “PBM E-score” value of the first is lower: -0.222 for the first, 0.0131 for the second.

Compared with AGCAGCAT, AATCGAGC is higher in “PBM E-score” value: -0.0509 for the first, -0.0323 for the second.

First: ACACCAAG
Second: CTGACGGA
The “PBM E-score” value of the first is higher: 0.0498 for the first, 0.00252 for the second.

Compared with CCAAGGGA, ACCGACGC is lower in “PBM E-score” value: -0.0642 for the first, -0.132 for the second.

Going from CCGCGTAC to AACTTCTG, the “PBM E-score” value rises from -0.0588 to 0.0469.

Compared with CCTTCACA, CACGGCGA is lower in “PBM E-score” value: 0.0915 for the first, -0.0518 for the second.

Going from ATGAATCG to GAAAGCAC, the “PBM E-score” value rises from -0.041 to 0.101.

Compared with GATTACGA, AGCGGGAC is lower in “PBM E-score” value: 0.169 for the first, -0.315 for the second.

First: ACACTTAG
Second: GCAGTGGA
The “PBM E-score” value of the first is lower: 0.0216 for the first, 0.0557 for the second.

Compared with GACTGCCC, GATGGAGC is higher in “PBM E-score” value: -0.243 for the first, -0.0687 for the second.

First: AAGGCTAA
Second: ACATTCTG
The “PBM E-score” value of the first is lower: 0.0695 for the first, 0.0795 for the second.

Compared with CAAGAGTC, CCCAGATC is lower in “PBM E-score” value: 0.028 for the first, -0.261 for the second.

Going from GTTTGTAA to CAGACAAA, the “PBM E-score” value falls from 0.209 to -0.029.

First: CACTGGGG
Second: ATGGAAAC
The “PBM E-score” value of the first is lower: -0.275 for the first, -0.0483 for the second.

Compared with GCATAACC, ATACCCGG is lower in “PBM E-score” value: 0.00111 for the first, -0.222 for the second.

Going from CCTGCAGA to GCGTCGTA, the “PBM E-score” value rises from -0.14 to 0.104.

Going from CACAATGC to AACCGCCC, the “PBM E-score” value falls from 0.181 to -0.124.

Going from CTACACAA to GGCACCCA, the “PBM E-score” value falls from 0.137 to -0.139.

Compared with CCTCCATA, ATAGCCGG is lower in “PBM E-score” value: -0.0725 for the first, -0.0746 for the second.

Going from CCTAACTA to CGCTCCCA, the “PBM E-score” value falls from 0.221 to -0.0614.

Compared with CGAGTTAG, GACAGGGA is higher in “PBM E-score” value: -0.123 for the first, -0.0395 for the second.

Compared with AAAGCGTT, CCCGTAGG is lower in “PBM E-score” value: 0.036 for the first, -0.276 for the second.

Going from ATGGCCCG to AAGGCTCA, the “PBM E-score” value rises from -0.153 to -0.127.

Compared with AAGTTGCC, GCTGACAC is lower in “PBM E-score” value: -0.108 for the first, -0.164 for the second.

Going from ACATCATG to CATTCGTA, the “PBM E-score” value rises from -0.0496 to 0.0238.

Compared with AGGGGTCA, TACTCTAA is higher in “PBM E-score” value: -0.115 for the first, 0.145 for the second.

Going from CAGGCGAA to AGCGGGGG, the “PBM E-score” value falls from -0.0707 to -0.41.

Compared with AATAGTAA, GCGATAAA is lower in “PBM E-score” value: 0.239 for the first, 0.0393 for the second.

Going from CGGCGAGC to ACTGGGAG, the “PBM E-score” value falls from -0.204 to -0.215.

Compared with AGAGCCCT, TGACGGAA is higher in “PBM E-score” value: -0.199 for the first, 0.119 for the second.

Compared with CCTGCAAG, CGAAGACA is higher in “PBM E-score” value: -0.236 for the first, -0.123 for the second.

First: AGGCACTG
Second: CCACTGGC
The “PBM E-score” value of the first is higher: 0.0625 for the first, -0.111 for the second.

First: GCAAATTA
Second: AACGCGCT
The “PBM E-score” value of the first is higher: 0.106 for the first, 0.0416 for the second.

First: CACGGCTA
Second: AGGGCTAA
The “PBM E-score” value of the first is lower: -0.132 for the first, -0.0933 for the second.

Compared with ACTAGCTA, ACGAGAGC is lower in “PBM E-score” value: 0.0556 for the first, -0.134 for the second.

Compared with GCGAGATA, AACTATCG is higher in “PBM E-score” value: 0.0981 for the first, 0.15 for the second.

Going from CTATGACC to TCGGACCA, the “PBM E-score” value rises from -0.0416 to 0.0418.

First: GACTAGGA
Second: CGATCAAG
The “PBM E-score” value of the first is lower: -0.00351 for the first, 0.0963 for the second.

First: AGTTACTA
Second: GAGCAACA
The “PBM E-score” value of the first is higher: 0.0545 for the first, -0.0784 for the second.

Going from CTGGCCTA to AGTTCTTC, the “PBM E-score” value rises from -0.0592 to 0.3.

First: ATCTTTTG
Second: ACTACACG
The “PBM E-score” value of the first is higher: 0.15 for the first, -0.0624 for the second.

Compared with GCGCTTTA, CCTTTCGA is lower in “PBM E-score” value: -0.00582 for the first, -0.0776 for the second.

First: CGCTTCAA
Second: GGGGACTA
The “PBM E-score” value of the first is higher: 0.0406 for the first, -0.254 for the second.

First: CTGGTACA
Second: GGGAACCA
The “PBM E-score” value of the first is higher: -0.0259 for the first, -0.224 for the second.

Compared with GAAAGGCC, CAAAACAG is higher in “PBM E-score” value: -0.253 for the first, 0.22 for the second.

First: GAAGTCGA
Second: AACTGTTG
The “PBM E-score” value of the first is lower: -0.0021 for the first, 0.0201 for the second.

Compared with GATTCCCC, ATGGTTTG is higher in “PBM E-score” value: -0.143 for the first, 0.0708 for the second.

First: AAGCCGCA
Second: ATAGCAGA
The “PBM E-score” value of the first is lower: -0.0894 for the first, 0.0243 for the second.

Going from GCTCTCAA to AGCCAAGC, the “PBM E-score” value falls from -0.044 to -0.221.

Compared with GGGTGCCA, TGCTCCCA is higher in “PBM E-score” value: -0.0919 for the first, -0.0244 for the second.

Going from AGCCACCG to CTAGGTCC, the “PBM E-score” value falls from -0.143 to -0.175.

First: GAACACCC
Second: GCGACAGA
The “PBM E-score” value of the first is lower: 0.00549 for the first, 0.0317 for the second.

Going from CTACAAAA to GCAGCTGA, the “PBM E-score” value falls from 0.00298 to -0.0558.

Going from AATCTTTG to AGGTAAAA, the “PBM E-score” value falls from 0.25 to 0.179.

Compared with TTGTACAA, AATTTATC is higher in “PBM E-score” value: 0.178 for the first, 0.398 for the second.

Going from AGTAAAGA to ACCTGGAC, the “PBM E-score” value falls from 0.0944 to -0.165.

Compared with AATCGGAG, CTAGATAC is higher in “PBM E-score” value: 0.0694 for the first, 0.186 for the second.

First: AAAACTAT
Second: CAAGACAA
The “PBM E-score” value of the first is higher: 0.217 for the first, 0.143 for the second.

First: CCTAGGCA
Second: CAGTAAAC
The “PBM E-score” value of the first is lower: -0.0795 for the first, -0.00574 for the second.

Going from ATGTACTG to ACGTTAGC, the “PBM E-score” value falls from 0.0642 to 0.0319.

First: CTCAGGTA
Second: ACGGCTCC
The “PBM E-score” value of the first is higher: 0.0811 for the first, -0.0407 for the second.

Compared with GAGGCCTC, ACAACGAC is higher in “PBM E-score” value: -0.37 for the first, 0.118 for the second.

Going from ATTAATAC to CGGTACCA, the “PBM E-score” value falls from 0.306 to -0.233.

First: CTTTACGA
Second: ATATTAAA
The “PBM E-score” value of the first is lower: -0.042 for the first, 0.355 for the second.

Compared with CCTGAAGC, TGTTAAAA is higher in “PBM E-score” value: -0.199 for the first, 0.226 for the second.

Going from AAAAAGGA to TAAGGTGA, the “PBM E-score” value falls from 0.171 to -0.0199.

Going from AAGTCCTG to ACGCAGGC, the “PBM E-score” value falls from -0.0492 to -0.13.

Going from CGAAGTAG to CTCGTAAG, the “PBM E-score” value rises from 0.112 to 0.156.
